We go through one molecule from patent publication US20230272116A1, “ANTIBODIES WHICH BIND TO CANCER CELLS AND TARGET RADIONUCLIDES TO SAID CELLS” (Hoffmann-La Roche Inc., priority 2020, published 2023).

Series [1] can be described thus: Biacore set-up 1 (Example 11): biotinylated Pb-DOTAM binding to captured N-terminal fusion hemibodies, read-out with monoStreptavidin. Conditions: 30 nM hemibody captured; 50 nM DOTAM, 200 nM monoStreptavidin; relative to reference CEA-DOTAM (PRIT-0213); FIG. 29, 30. The procedure: Two experimental set-ups were used. • 1. In a first experimental set-up, individual TA-split-DOTAM-VH and TA-split-DOTAM-VL antibodies were first captured on a chip using an immobilized anti-hFab, and then binding of the two enantiomers of biotinylated Pb-DOTAM was assessed.
The experiments were performed with Biacore T200 at 25° C. measuring temperature. All Biacore T200 experiments were carried out in HBS-P+(GE Healthcare, Br-1008-27) pH 7,4 running buffer. The 30 nM solution in HBS-P+ of Prodrug_A or Prodrug_B was injected over the anti hFc (GE Healthcare, BR-1008-39) CM5 Chip surface (10 μl/min, 60 sec). After high density capturing of Prodrug A or B solution the 50 nM DOTAM solution (10 μl/min, 120 sec) and then the 200 nM monoStreptavidin solution (10 μl/min, 90 sec) was injected. The dissociation was monitored for 120 sec at a flow rate of 10 μl/min. For new cycle the surface was regenerated by using of 3M MgCl2 and 60 sec regeneration time with. The relative response determination was evaluated by T200 evaluation software.

The nature of series [2]: Expression analysis (protein yield) of N-terminal fusion format split antibodies (Example 10). Conditions: HEK cell expression. From the text: In a first set, the VH and VL domain of the humanized DOTAM binder contained an N-terminal Q for the VH domain and an N-terminal A for the VL domain. In the second set, they contained an N-terminal G and S, respectively. It was observed that in this format, the antibody containing the VH domain of the humanized DOTAM binder was not successfully expressed with an N-terminal G but was successfully expressed with an N-terminal Q. G is not a typical residue at this position in a VH domain. An antibody containing the VL domain was successfully expressed with either an N-terminal S or A residue, both of which are typical residues at this position in a VL domain.

B1: P1AG1807: TA-split-DOTAM-VL hemibody having an N-terminal fusion format as shown in FIG. 25C (antibody)
heavy: QVQLVQSGAEVKKPGASVKVSCKASGYTFTEFGMNWVRQAPGQGLEWMGWINTKTGEATYVEEFKGRVTFTTDTSTSTAYMELRSLRSDDTAVYYCARWDFAYYVEAMDYWGQGTTVTVSSASTKGPSVFPLAPSSKSTSGGTAALGCLVKDYFPEPVTVSWNSGALTSGVHTFPAVLQSSGLYSLSSVVTVPSSSLGTQTYICNVNHKPSNTKVDKKV[human IgG1 Fc with changes skipped]
chain: AIQMTQSPSSLSASVGDRVTITCQSSHSVYSDNDLAWYQQKPGKAPKLLIYQASKLASGVPSRFSGSGSGTDFTLTISSLQPEDFATYYCLGGYDDESDTYGFGGGTKVEIKGGGGSGGGGSGGGGSGGSGGDKTHTCPPCPAPEAAGGPSVFLFPPKPKDTLMISRTPEVTCVVVDVSHEDPEVKFNWYVDGVEVHNAKTKPREEQYNSTYRVVSVLTVLHQDWLNGKEYKCKVSNKALGAPIEKTISKAKGQPREPQVCTLPPSRDELTKNQVSLSCAVKGFYPSDIAVEWESNGQPENNYKTTPPVLDSDGSFFLVSKLTVDKSRWQQGNVFSCSVMHEALHNHYTQKSLSLSPGK
light: DIQMTQSPSSLSASVGDRVTITCKASAAVGTYVAWYQQKPGKAPKLLIYSASYRKRGVPSRFSGSGSGTDFTLTISSLQPEDFATYYCHQYYTYPLFTFGQGTKLEIKRTVAAPSVFIFPPSDEQLKSGTASVVCLLNNFYPREAKVQWKVDNALQSGNSQESVTEQDSKDSTYSLSSTLTLSKADYEKHKVYACEVTHQGLSSPVTKSFNRGEC
On to B1, for which the “DOTAM binding (relative response)” value in series [1] is recorded as “No DOTAM interaction”. Further, the “Yield after Prot A” value in series [2] (after Protein A affinity step) was found to be 200 mg/L. The “Final Yield” value in series [2] (after final purification) stood at 65.6 mg/L.
